Reference: the supplement of paper PMC4466236
In all, about 33,000 sequences were measured (“E-score (dimensionless, -0.5 to 0.5)”: median about -0.058, highest 2% from about 0.35 on). The list shows a part of the results.

test system: MvaT; assay: PBM 8-mer E-score (mean of HK and ME arrays) (E-score (dimensionless, -0.5 to 0.5)); higher = stronger relative binding preference; most listed sequences are background and not binding sites
Description: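 Protein binding microarray: GST-tagged full-length MvaT (P. aeruginosa PAO1) bound to two universal double-stranded 60-mer arrays (ME and HK), each with a constant 25-mer primer and a variable 35-mer region covering all 8-mers. The 8-mer E-score (rank-based, range -0.5 to 0.5, >0.45 = specific binding) is the mean of the two arrays.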

Sequence | PBM 8-mer E-score
CTGGTAAG | -0.0354
TCAGCGCA | -0.0216
GATGCGCA | -0.129
GGCGGTAC | -0.101
ATGTGTGG | 0.0279
CGAATTCC | -0.0677
AGTCCCAC | -0.11
AAAGCTTA | 0.121
ACAACCAA | 0.0885
GAGCATAC | -0.0435
GCAACAAC | 0.163
CGAAATAA | 0.374
TCACTTCA | 0.0874
ATGCAATA | 0.134
AATAAAAT | 0.388
ATCTCCAC | -0.106
GCCTGGCA | -0.242
GGTGTAGA | -0.0679
AGCACCGG | -0.234
AGCATCCT | -0.323
AGACATCT | 0.0505
GATTCCCA | -0.084
AAGCGTTC | -0.101
CAGGATCC | -0.277
AATTTCCT | 0.105

Sequence | PBM 8-mer E-score
AGACTATA | 0.266
AGTAAACC | 0.0832
CGACGTCA | -0.129
CAATTAAA | 0.305
CACGGACG | -0.187
CGCTTGCC | -0.327
TTAGAGAA | -0.0978
CCCTCAGA | -0.15
ATGCCTCC | -0.229
GGGAGGAC | -0.276
CGGACACA | -0.0158
ACCGAAGT | 0.103
AATAGTCC | 0.12
GAACCCCC | -0.274
CTGTCACC | -0.285
CTTTAAAG | 0.25
CATGTCAG | -0.042
GCTTGGCC | -0.263
CTAGAATC | 0.0185
TCAGCCCA | -0.133
CATCACTC | -0.0746
AGTGAGCC | -0.215
GATCAAAC | -0.0409
AGTTGACG | 0.0458
GAAGCCTA | -0.0743

Sequence | PBM 8-mer E-score
ACACGAAC | -0.0725
CGTTTCAC | -0.142
CACTAACA | 0.193
ATCGTCAT | -0.113
CGGGGCAA | -0.057
CCCGTACG | -0.15
ACGACTGG | -0.131
CCTGCCTC | -0.249
CCTTCAAC | -0.115
GAAGTGAA | -0.0533
GTCCGCTA | -0.0998
AGCGCCCA | -0.25
ACTAGGTG | 0.0588
GCGCATAA | 0.193
ATCTTACC | 0.0512
GCATAGGA | 0.0818
ATCTCCCA | -0.104
ATTAGGTA | 0.257
GCGCCGCA | -0.107
CGCTGCCG | -0.296
GACGGGCC | -0.201
TAACTAAA | 0.312
CCGCGGCC | -0.227
ACGTCTTA | 0.0249
AGAATCTG | -0.0999

Sequence | PBM 8-mer E-score
GCTAAAAA | 0.141
CACGCATA | -0.0162
CAGAGTAC | -0.0672
TGCCTAAA | 0.0359
CAACGCTG | -0.0694
AGCGTTTA | 0.0503
GCCGAAGA | -0.0891
GGGGCAAA | -0.145
CATCTAAA | 0.121
AAATGCCT | -0.0883
GACATGTA | 0.238
ACTGCAAC | 0.0811
GCCTAGCA | -0.27
AATATCCT | 0.183
CCGGTCAG | -0.0505
ATCCGGTC | -0.186
GTCCATAA | 0.0831
CACACTAA | 0.102
ACTCGTAT | 0.0784
AGAGACCC | -0.314
GACCGTGC | -0.112
GTGAGCGA | -0.064
AGGCTGAA | -0.179
CCGTCTCC | -0.264
CAGGAGCG | -0.212

Sequence | PBM 8-mer E-score
AAGGGTGA | -0.247
CCCAGACC | -0.252
CGAGTCCA | -0.208
GAGCGAAA | 0.00854
CTGGGCTC | -0.278
ACTTAACT | 0.275
CTCGGGCC | -0.287
CAATGGAC | -0.00508
ACTGCATA | 0.0711
CCGCCCAG | -0.0541
GACTGCTA | -0.0765
ATTTAGCG | 0.243
ACCACAAC | 0.155
AACCGATT | 0.0532
CGAACCAC | -0.118
AGTGCTCC | -0.282
AGAATCAG | -0.00486
ATGTATCA | 0.291
GAGTAATC | -0.00607
GTAAATCA | 0.189
AAAATGTT | 0.262
GCTGGACC | -0.262
CGGAACAG | -0.0406
GAAGCCGC | -0.331
TCCCACCA | -0.165

Sequence | PBM 8-mer E-score
GACTGCTC | -0.211
CAGGCATA | 0.0107
GATAGCAC | -0.0624
GGGACGGA | -0.273
AAGTACGA | 0.133
CCGTTGAA | -0.0332
CAGAATCC | -0.168
ATCGGCTA | -0.0243
TATAACGA | 0.374
CCCACCTA | -0.127
ACGAGTGC | -0.179
ACTAAACC | 0.146
GCGTAACC | -0.127
CGCCACCA | -0.103
ATGGTTAC | -0.0232
CATATAGC | 0.0736
GGATTGGA | 0.0676
CGACTTAC | -0.107
AAGGGCAG | -0.213
ACAGTAAA | 0.241
GAGTGACC | -0.186
GGCAATTA | 0.211
CTGTTTAA | 0.302
ATACCGGC | -0.106
CCTTCGTA | -0.28

Sequence | PBM 8-mer E-score
CTTTCGGC | -0.243
CACATCTG | -0.163
AGTACGGG | -0.11
TAAGCTAA | 0.139
AATCGCAA | 0.0838
ATGGATAC | 0.0416
AAACAAAG | 0.192
AAGTAAAC | 0.192
GTCGCCAC | -0.145
CGATAGTC | -0.0515
CGTGGCAA | -0.0428
TCATTTAA | 0.327
GTACCGAC | -0.2
AGAACTCT | 0.0401
AGGCACCG | -0.214
GAGAGGCA | -0.227
CCACACCA | -0.0264
TCTGGTAA | 0.0776
GGTTACGA | -0.168
ATGGGGTG | -0.257
ATTAAGGC | 0.172
CACTTTAC | 0.164
CTAATCAA | 0.102
CGTCTAAC | -0.0692
AGGACGCC | -0.274

Sequence | PBM 8-mer E-score
CAGCGAAA | -0.0595
CCCTTTCA | -0.089
GTGGCCTA | -0.304
ATTACAAG | 0.278
CACGGGGA | -0.0937
GCTAATAC | 0.27
CTCTTCCA | -0.234
ACATTATA | 0.396
CCGTATCA | -0.0815
TTGATAAA | 0.253
ATAACGGG | 0.121
ATGAATCA | 0.123
GACAAGTC | -0.291
CATACACG | 0.0143
CTGCAGGA | -0.114
TCCGAGAA | -0.205
GAATGACA | -0.0156
AATAGCGT | 0.0308
CGAGCTCA | -0.276
CAGGTAAG | -0.0439
AGGCGGTA | -0.196
GTAAGCGA | 0.0773
CCATAAAC | 0.122
AGACGCGC | -0.176
CGACCCGA | -0.254

Sequence | PBM 8-mer E-score
AAGAATGT | 0.141
CCAGGCGG | -0.163
GGGTGGCA | -0.102
GGTCCCAC | -0.151
AGGTCGAA | -0.0945
AAACTGCC | -0.11
CGTTCAGA | -0.134
AGTACAAA | 0.286
CGGCGATA | 0.0426
CAACACTG | 0.0109
CGCTACCC | -0.219
CGATAACA | 0.271
ATGATGCA | 0.0558
ATTGCATA | 0.202
AGCTAACC | -0.149
ACTGATAT | 0.282
ACACAAAT | 0.237
AAGCATGG | -0.163
AACACGAG | 0.0124
CCGCAGAG | -0.17
ATATGCAC | 0.337
AGGTGGTC | -0.218
GTTACCCA | 0.0319
GATCGGAC | -0.286
AAGATTAC | 0.1

Sequence | PBM 8-mer E-score
ACCTGAGG | -0.13
GCGATAGA | -0.258
ATCGTTGG | -0.167
AAGTATCA | 0.204
CAAACCAA | 0.184
ATATAGCA | 0.324
ACACGCGG | -0.136
GCTACACC | -0.125
GCCTGGAA | -0.104
ACATGTAG | 0.209
AACACTAC | 0.105
CGGCACAG | -0.151
GAGATTTA | 0.0378
GTCGTACA | 0.06
ATGCGGAA | -0.0895
CCACACGG | -0.162
AGAATCGC | -0.0249
CACTATGC | 0.012
AGCCGTGC | -0.283
ACTTAATA | 0.4
CAAAGCTA | -0.186
ACGCCAAA | -0.0145
CCGCGAAA | -0.151
GGATTGAC | -0.169
AGAAGCCA | -0.118

Sequence | PBM 8-mer E-score
ATGAGGAG | -0.242
CCCGTCAC | -0.179
ATCGATGC | 0.0149
CCGACTAG | -0.0959
AAATTTAT | 0.384
CTTAATGA | 0.0908
AGCGGCAT | -0.0757
GACGATAA | 0.145
AGTATCAC | 0.0376
GATCTTCC | -0.166
AATCACGG | -0.0534
GTCCAGGA | -0.138
GCATTTCC | -0.0511
TTCACCAA | 0.18
CGGATGGA | -0.171
AATGATCT | -0.0643
GCCTTATA | 0.188
AGGATTAT | 0.193
CCAAAAGC | -0.105
CAGGCATC | -0.23
AGCATACC | -0.0477
ACAGTACC | 0.0272
ACAACTCG | 0.0983
ATCGAACC | -0.0363
CGTTTCAG | -0.0777

Sequence | PBM 8-mer E-score
AGCATGAG | -0.176
CATTTACC | 0.152
CACAGTCA | -0.113
ACGTACCC | -0.128
AATATGTG | 0.368
TCAGCGGA | -0.0835
GTGTGGGA | 0.0582
CATTCATC | 0.0494
CGAAAACG | -0.141
CGTCAAAG | -0.136
CCTTATAA | 0.338
ATCGTGGC | -0.212
TGCAAAAA | 0.109
GGGGATTA | -0.0867
ATTTCTCG | 0.174
CCGGTTGA | -0.0358
ACGAGCGG | -0.271
GTACGGAC | -0.24
GAATTACC | 0.151
GGCTGCCC | -0.243
GGCTGATA | -0.0182
AGGAGCGC | -0.259
ACAGGGGG | -0.216
AAATGGAT | 0.103
ATCCCGGA | -0.0572

Sequence | PBM 8-mer E-score
CAACCAGC | -0.188
GCGCCAGC | -0.0869
CGAGTATC | 0.0738
ACTTTCGC | 0.0699
AACCAGGT | -0.111
AGGGCCGC | -0.285
GAAGTTCA | 0.16
AACCGCGC | 0.0275
AGGTGGAG | -0.207
CGATGCGA | -0.143
GAAACAAA | 0.271
CTAGCTAG | -0.0718
AAAGAAAG | 0.281
AGCGACCT | -0.0364
GCTAGTCC | -0.297
AATTCTCA | 0.0749
AGACGACC | -0.202
AGCTCTGA | -0.129
AATAGCAT | 0.191
CGTCCACG | -0.152
CAAGTAGC | -0.0211
ATAATTCG | 0.228
GATCAATA | 0.152
CTAACTGA | 0.0161
CGGGCTAC | -0.163

Sequence | PBM 8-mer E-score
AGCTTTTA | 0.163
ACGCGAAC | -0.0277
ACCATGGA | -0.142
GCGTGGAC | -0.192
CGTGTCTA | -0.129
GCGACGCA | -0.0675
TGTACTAA | 0.17
AAGAAGAG | -0.027
CTCTGGGA | -0.112
AGTCCACC | -0.22
AGTGGGCA | 0.0126
CGAGATAC | -0.0241
GTGGTCAA | 0.0494
GAAATACA | 0.0961
ACGCATGA | -0.132
CCCCGACA | -0.186
AATTCCGT | 0.0241
CAATTCAC | 0.0398
TGAGCACA | -0.0844
